According to PubChem BioAssay (NCATS):
Inconclusive results, whose numbers are uncertain, are shown with a selection of clear calls. Potencies of inconclusive entries are left out as doubtful fits. Calls of active or inactive are those of the source. Calls come from the whole dose curve; as a rule, active = well fitted curve in the direction sought with a large enough effect; inconclusive = small, poorly fitted or top-dose-only effect, or another doubt; inactive = no such curve, though single readings can be large; an effect the other way counts as inactive or inconclusive.

Assay: qHTS of pediatric cancer cell lines to identify multiple opportunities for drug repurposing: Primary screen for U-2 OS cells (AID 1347096); note: nearly all actives have a fitted effect of over 50% in size;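 for activity change, negative = cytotoxic: plate controls were DMSO wells for no effect and bortezomib positive control wells for full effect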
Conditions: U-2 OS viability, CellTiter-Glo luminescence, 48 h; series mostly up to 46 µM
Outline: (§1)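 Cells (500-1,000/well) rested 5 h, then received compounds for 48 h; metabolically active cells were measured by CellTiter-Glo luminescence. Final concentrations spanned up to 46 µM (MIPE, 11-point) or 0.59 nM-46 µM (NPC, 8-point) in primary screens, 11-point in follow-ups.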
Potency is the fitted concentration of half-maximal effect; tags give direction and shape of the fitted curve.

| SMILES | activity change, negative = cytotoxic | Potency |
| --- | --- | --- |
| NCC(CC(=O)O)c1ccc(Cl)cc1 (configuration not stated) | inactive: -3.85% [at 0.597 µM] |  |
| CC(Cc1ccccc1)NCc1ccccc1Cl (configuration not stated) |  | inconclusive [cytotoxic, partial curve, poor fit] |
| CC[n+]1c(-c2ccccc2)c2cc(N)ccc2c2ccc(N)cc21 |  | inconclusive [cytotoxic, partial curve] |
| COc1cccc(C(=O)CCN[C@@H](C)[C@H](O)c2ccccc2)c1 |  | inactive |

Assay: qHTS of pediatric cancer cell lines to identify multiple opportunities for drug repurposing: Primary screen for Saos-2 cells (AID 1347097); note: nearly all actives have a fitted effect of over 40% in size; for activity change, negative = cytotoxic: % is set by controls: 0 for no effect and ±100 for the full control effect
Conditions: Saos-2 viability, CellTiter-Glo ATP luminescence, 48 h; activity change, negative = cytotoxic: at 46 µM (top of the series) unless noted
Outline: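 Primary screen of approved and investigational compounds on cells in growth media at 37 degrees C, 5% CO2. MIPE set at 11-point and NPC set at 8-point dilutions; viability scored by ATP-based luminescence at 48 hours.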

| SMILES | Potency |
| --- | --- |
| CC(C)Oc1cccc(NC(=O)c2ccccc2C(F)(F)F)c1 | inconclusive [cytotoxic, partial curve] |
| C#CC1(O)CCC2C3CCC4=CC(=O)CCC4(C)C3CCC21C (configuration not stated) | inconclusive [cytotoxic, partial curve, poor fit] |
| C[C@H](N)[C@H](O)c1ccc(O)c(O)c1 | inconclusive [cytotoxic, single point] |
| O=C(O)C(=O)c1cn(Cc2ccccc2)c2ccc(-c3ccc(OC(F)(F)F)cc3)cc12 | active: 23.5 µM |
| N#Cc1nn(-c2c(Cl)cc(C(F)(F)F)cc2Cl)c(N)c1S(=O)C(F)(F)F (configuration not stated) | inconclusive [cytotoxic, single point] |
| NCC(CC(=O)O)c1ccc(Cl)cc1 (configuration not stated) | inconclusive [cytotoxic, partial curve, poor fit] |
| C[C@]12C=CC(=O)C=C1CC[C@@H]1[C@@H]2CC[C@@]2(C)[C@H]1CC[C@]2(C)O | inconclusive [cytotoxic, single point] |
| CC(C)CC(N(C)C)C1(c2ccc(Cl)cc2)CCC1 (configuration not stated) | inconclusive [cytotoxic, partial curve, poor fit] |
| CC1=C2C[C@@H]3[C@@H](CC=C4C[C@@H](O)CC[C@@]43C)[C@@H]2CC[C@]12O[C@H]1C[C@H](C)CN[C@H]1[C@H]2C | inactive |
| CC(O)=C(C#N)C(=O)Nc1cc(Br)ccc1Br | inconclusive [cytotoxic, partial curve] |
| CCN(CC)C(=O)c1ccc(C2=CC3(CCNCC3)Oc3cccc(O)c32)cc1 | inactive |
| c1ccc(CCCN2CCN(CCOC(c3ccccc3)c3ccccc3)CC2)cc1 | inconclusive [cytotoxic, partial curve, poor fit] |
| CC(C)=CC1C(C(=O)OCN2C(=O)C3=C(CCCC3)C2=O)C1(C)C (configuration not stated) | inconclusive [cytotoxic, partial curve] |
| COc1ccc(C(=O)c2c(C)n(CCN3CCOCC3)c3ccccc23)cc1 | inconclusive [cytotoxic, single point] |
| CC(Cc1ccccc1)NCc1ccccc1Cl (configuration not stated) | inconclusive [cytotoxic, partial curve, poor fit] |
| C[C@]12CCC(=O)C=C1CC[C@@H]1[C@@H]2CC[C@@]2(C)[C@H]1CC[C@]2(C)O | inconclusive [cytotoxic, single point] |
| CC[C@]1(O)CC[C@H]2[C@@H]3CCC4=CCCC[C@@H]4[C@H]3CC[C@@]21C | inconclusive [cytotoxic, single point] |
| CC[n+]1c(-c2ccccc2)c2cc(N)ccc2c2ccc(N)cc21 | active: 13.3 µM |
| O=C1c2ccccc2C(=O)C1C(=O)C(c1ccccc1)c1ccccc1 | inconclusive [cytotoxic, single point] |
| Nc1ccc(Cl)cc1C(=O)c1ccccc1F | inconclusive [cytotoxic, single point] |
| O=[N+]([O-])c1c(Cl)c(Cl)cc(Cl)c1Cl | inactive |
| Nc1ccc(N)cc1 | inconclusive [cytotoxic, single point] |
| COc1cccc(C(=O)CCN[C@@H](C)[C@H](O)c2ccccc2)c1 | inconclusive [cytotoxic, single point] |

Assay: qHTS of pediatric cancer cell lines to identify multiple opportunities for drug repurposing: Primary screen for SK-N-SH cells (AID 1347098); note: nearly all actives have a fitted effect of over 65% in size;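 for activity change, negative = cytotoxic: DMSO served as neutral control and bortezomib at 2.3 µM as positive control; % is set by controls: 0 for no effect and ±100 for the full control effect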
Conditions: SK-N-SH viability, CellTiter-Glo luminescence, 48 h; activity change, negative = cytotoxic: at 57 µM (top of the series) unless noted
Outline: as §1

| SMILES | Potency |
| --- | --- |
| CC(C)Oc1cccc(NC(=O)c2ccccc2C(F)(F)F)c1 | inconclusive [cytotoxic, full curve, poor fit] |
| C[C@H](N)[C@H](O)c1ccc(O)c(O)c1 | inconclusive [cytotoxic, full curve] |
| N#Cc1nn(-c2c(Cl)cc(C(F)(F)F)cc2Cl)c(N)c1S(=O)C(F)(F)F (configuration not stated) | inconclusive [cytotoxic, single point] |
| NCC(CC(=O)O)c1ccc(Cl)cc1 (configuration not stated) | inconclusive [cytotoxic] |
| CC(C)CC(N(C)C)C1(c2ccc(Cl)cc2)CCC1 (configuration not stated) | inconclusive [cytotoxic, partial curve, poor fit] |
| NC(=O)c1cc([N+](=O)[O-])cc([N+](=O)[O-])c1 | inactive |
| CC(O)=C(C#N)C(=O)Nc1cc(Br)ccc1Br | inconclusive [cytotoxic, partial curve] |
| c1ccc(CCCN2CCN(CCOC(c3ccccc3)c3ccccc3)CC2)cc1 | inconclusive [cytotoxic, single point] |
| COc1ccc(C(=O)c2c(C)n(CCN3CCOCC3)c3ccccc23)cc1 | inconclusive [cytotoxic, single point] |
| CC[C@]1(O)CC[C@H]2[C@@H]3CCC4=CCCC[C@@H]4[C@H]3CC[C@@]21C | inconclusive [cytotoxic, full curve] |
| CCOP(=S)(OCC)Oc1ccc2c(C)c(Cl)c(=O)oc2c1 | inconclusive [cytotoxic, full curve] |
| CC(=O)OCC1=C(C(=O)O)N2C(=O)[C@@H](N)[C@@H]2SC1 | inconclusive [cytotoxic, single point] |
| Nc1ccc(Cl)cc1C(=O)c1ccccc1F | inconclusive [cytotoxic, partial curve] |
| Nc1ccc(N)cc1 | inconclusive [cytotoxic, partial curve, poor fit] |
| COc1ccc2c(c1)[C@]13CCCCC1C(C2)N(C)CC3 (some centres not stated) | inconclusive [cytotoxic, partial curve] |
